# Laboratory results taken from a collection of fitness landscapes (doi:10.1016/j.celrep.2020.107928).
# In all, about 81,000 sequences were measured (“one-hybrid fitness for binding NBS DNA”: median about -0.1, highest 2% from about 0.36 on). The list shows a part of the results.
# B1: Caulobacter ParB omega fusion; a variant is named by its letters at X, in order, B8GW30 (parent)
# chain: MESVVVGEPGMSEGRRGLGRGLSALLGEVDAAPAQAPGEQLGGSREAPIEILQRNPDQPRRTFREEDLEDLSNSIREKGVLQPILVRPSPDTAGEYQIVAGERAWRAAQRAGLKTVPIMVRELDDLAVLEIGIIENVQRADLNVLEEALSYKVLMEKFERTQENIAQTIGKSXSHVANXMRLLXLPDEVQSYLVSGELTAXHARAIAAAADPVALAKQIIEGGLSVRETEALARKAPNLSAGKSKGGRPPRVKDTDTQALESDLSSVLGLDVSIDHRGSTGTLTITYATLEQLDDLCNRLTRGI
# Variants of: B1
# Test: one-hybrid fitness for binding NBS DNA (the Noc-binding site; scaled: cognate 1, non-cognate 0); higher = stronger binding
# Settings: with NBS DNA site
# Outline: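 Values were rescaled so that cognate is 1 and non-cognate is 0. Each is a fitness, the log change in a variant's read ratio to wild type from Illumina reads of plasmids before and after selection, with three replicate libraries pooled and variants under 10 reads dropped. Selection of the Caulobacter ParB libraries, four specificity codons randomised, used E. coli USO with a HIS3 reporter, site 19 bp from the promoter, on M9-minus-histidine with 0.1 mM IPTG and 5 mM 3-AT for 48 hours at 37°C.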
row,Variant,one-hybrid fitness for binding NBS DNA
1,VEAR,≤ 0.2
2,TTDS,≤ 0.2
3,GLSI,≤ 0.2
4,KRWY,≤ 0.2
5,LQNL,≤ 0.2
6,LCER,≤ 0.2
7,PGQT,≤ 0.2
8,SIMK,≤ 0.2
9,HHIF,≤ 0.2
10,DETT,≤ 0.2
11,KAPF,≤ 0.2
12,HFEC,≤ 0.2
13,MDAR,≤ 0.2
14,HHNI,≤ 0.2
15,VVGS,≤ 0.2
16,PDNL,≤ 0.2
17,SAVA,≤ 0.2
18,QYKC,0.371
19,WACS,≤ 0.2
20,NAGM,≤ 0.2
21,KRLL,≤ 0.2
22,NEKR,≤ 0.2
23,LSKS,≤ 0.2
24,CPHI,≤ 0.2

row,Variant,one-hybrid fitness for binding NBS DNA
1,HSPW,≤ 0.2
2,SRVA,≤ 0.2
3,PAHS,≤ 0.2
4,EPST,≤ 0.2
5,KYER,≤ 0.2
6,TSET,≤ 0.2
7,NQNP,≤ 0.2
8,GNSA,≤ 0.2
9,VGNS,≤ 0.2
10,PSAP,≤ 0.2
11,AHEG,≤ 0.2
12,WFTG,≤ 0.2
13,KYFS,≤ 0.2
14,RMPE,≤ 0.2
15,SLVY,≤ 0.2
16,ISMV,≤ 0.2
17,MAIV,≤ 0.2
18,PQCG,≤ 0.2
19,RMYA,≤ 0.2
20,ATTD,≤ 0.2
21,PYGW,≤ 0.2
22,RLWH,≤ 0.2
23,MHAP,≤ 0.2
24,QSIE,≤ 0.2

row,Variant,one-hybrid fitness for binding NBS DNA
1,AAEE,≤ 0.2
2,PRQD,≤ 0.2
3,MCTS,≤ 0.2
4,HCWY,≤ 0.2
5,CAMS,≤ 0.2
6,YDGS,≤ 0.2
7,ADPG,≤ 0.2
8,NAPH,≤ 0.2
9,KTTP,≤ 0.2
10,MASS,≤ 0.2
11,GSLS,≤ 0.2
12,MLGC,≤ 0.2
13,PSQF,≤ 0.2
14,YLDG,≤ 0.2
15,SNER,≤ 0.2
16,HAPA,≤ 0.2
17,DQTE,≤ 0.2
18,TTQR,≤ 0.2
19,CTGG,≤ 0.2
20,VVMF,≤ 0.2
21,RCFY,≤ 0.2
22,VHNW,≤ 0.2
23,EMCG,≤ 0.2
24,TLTQ,≤ 0.2

row,Variant,one-hybrid fitness for binding NBS DNA
1,TSFV,≤ 0.2
2,LKGC,≤ 0.2
3,QQGT,0.475
4,HWRG,≤ 0.2
5,YVYP,≤ 0.2
6,GIAA,≤ 0.2
7,LTWC,≤ 0.2
8,FWNR,≤ 0.2
9,RTSN,≤ 0.2
10,HWDG,≤ 0.2
11,SHAV,≤ 0.2
12,MPLM,≤ 0.2
13,HMWT,≤ 0.2
14,STPR,≤ 0.2
15,PKVP,≤ 0.2
16,APLL,≤ 0.2
17,VYCS,≤ 0.2
18,ATQN,≤ 0.2
19,HIDQ,≤ 0.2
20,PRTN,≤ 0.2
21,FNKV,≤ 0.2
22,SCEG,≤ 0.2
23,LATD,≤ 0.2
24,PSCS,≤ 0.2

row,Variant,one-hybrid fitness for binding NBS DNA
1,RSYV,≤ 0.2
2,PVMP,≤ 0.2
3,ALTQ,≤ 0.2
4,HNLC,≤ 0.2
5,CICG,≤ 0.2
6,KFLR,≤ 0.2
7,GFSG,≤ 0.2
8,QPDH,≤ 0.2
9,RQHK,≤ 0.2
10,FCHW,≤ 0.2
11,VTHP,≤ 0.2
12,GCQP,≤ 0.2
13,QAKT,0.692
14,WHRL,≤ 0.2
15,PCAW,≤ 0.2
16,QQCA,0.291
17,QRIV,≤ 0.2
18,KPMS,≤ 0.2
19,VPKK,≤ 0.2
20,RCWA,≤ 0.2
21,RWNH,≤ 0.2
22,KPDM,≤ 0.2
23,KRKS,0.536
24,NTWW,≤ 0.2

row,Variant,one-hybrid fitness for binding NBS DNA
1,LHVM,≤ 0.2
2,PQTA,≤ 0.2
3,QLFK,≤ 0.2
4,QYQL,≤ 0.2
5,PTEG,≤ 0.2
6,QREC,0.22
7,HAKH,≤ 0.2
8,LHVV,≤ 0.2
9,QKIF,≤ 0.2
10,IDPV,≤ 0.2
11,MVLR,≤ 0.2
12,HYKT,≤ 0.2
13,SQNR,≤ 0.2
14,IDVC,≤ 0.2
15,APED,≤ 0.2
16,FYYS,≤ 0.2
17,EQML,≤ 0.2
18,VIYM,≤ 0.2
19,FALS,≤ 0.2
20,KRAQ,≤ 0.2
21,EGAT,≤ 0.2
22,PATY,≤ 0.2
23,FYCS,≤ 0.2
24,HVTT,≤ 0.2

row,Variant,one-hybrid fitness for binding NBS DNA
1,SEWF,≤ 0.2
2,RMNV,≤ 0.2
3,WACV,≤ 0.2
4,ILEY,≤ 0.2
5,RETC,≤ 0.2
6,SNNR,≤ 0.2
7,ARDI,≤ 0.2
8,GVLG,≤ 0.2
9,KYVP,≤ 0.2
10,CWRI,≤ 0.2
11,SVWV,≤ 0.2
12,IQRH,≤ 0.2
13,CESG,≤ 0.2
14,GAWI,≤ 0.2
15,HCYG,≤ 0.2
16,YTWG,≤ 0.2
17,SCHS,≤ 0.2
18,SCKL,≤ 0.2
19,THRA,≤ 0.2
20,RQYG,≤ 0.2
21,PDWS,≤ 0.2
22,EVNV,≤ 0.2
23,EYQE,≤ 0.2
24,QQDF,≤ 0.2

row,Variant,one-hybrid fitness for binding NBS DNA
1,AGTI,≤ 0.2
2,CKDG,≤ 0.2
3,VLVE,≤ 0.2
4,QPFI,≤ 0.2
5,PGPP,≤ 0.2
6,HAIN,≤ 0.2
7,VIAS,≤ 0.2
8,WPKT,≤ 0.2
9,DTEF,≤ 0.2
10,SQDM,≤ 0.2
11,PRDR,≤ 0.2
12,RNHF,≤ 0.2
13,TCSE,≤ 0.2
14,LKVA,≤ 0.2
15,KWSR,≤ 0.2
16,AFMD,≤ 0.2
17,CQSG,≤ 0.2
18,QCGS,0.487
19,RPNT,≤ 0.2
20,RWQF,≤ 0.2
21,PPDW,≤ 0.2
22,EALD,≤ 0.2
23,DYNG,≤ 0.2
24,YELA,≤ 0.2

row,Variant,one-hybrid fitness for binding NBS DNA
1,TSWF,≤ 0.2
2,ACPP,≤ 0.2
3,SLTY,≤ 0.2
4,TLPV,≤ 0.2
5,GWDS,≤ 0.2
6,GYAA,≤ 0.2
7,MCQV,≤ 0.2
8,RNAG,≤ 0.2
9,GRDI,≤ 0.2
10,PACT,≤ 0.2
11,WTHV,≤ 0.2
12,TFWR,≤ 0.2
13,WDDF,≤ 0.2
14,FNRG,≤ 0.2
15,IFYG,≤ 0.2
16,PLHR,≤ 0.2
17,RPGK,≤ 0.2
18,RIYI,≤ 0.2
19,DYAK,≤ 0.2
20,ETPI,≤ 0.2
21,FYHR,≤ 0.2
22,HVIR,≤ 0.2
23,YYLV,≤ 0.2
24,PFAW,≤ 0.2

row,Variant,one-hybrid fitness for binding NBS DNA
1,SPKY,≤ 0.2
2,MFID,≤ 0.2
3,WVNN,≤ 0.2
4,NWMR,≤ 0.2
5,FLGS,≤ 0.2
6,WSCM,≤ 0.2
7,VVIT,≤ 0.2
8,NSDE,≤ 0.2
9,RWTF,≤ 0.2
10,WLPA,≤ 0.2
11,PSLI,≤ 0.2
12,TPVE,≤ 0.2
13,YVLR,≤ 0.2
14,EPML,≤ 0.2
15,QGLG,≤ 0.2
16,YSVC,≤ 0.2
17,IKDF,≤ 0.2
18,LDKL,≤ 0.2
19,LIVY,≤ 0.2
20,DMPL,≤ 0.2
21,QQVA,0.271
22,QRRR,1.1
23,THKE,≤ 0.2
24,PHPK,≤ 0.2

row,Variant,one-hybrid fitness for binding NBS DNA
1,GCIG,≤ 0.2
2,RDGR,≤ 0.2
3,SYAW,≤ 0.2
4,AYYG,≤ 0.2
5,QKPC,≤ 0.2
6,AQDI,≤ 0.2
7,RFHQ,≤ 0.2
8,AKTN,≤ 0.2
9,KHFS,≤ 0.2
10,RMFN,≤ 0.2
11,VMFG,≤ 0.2
12,KFKG,≤ 0.2
13,YSMM,≤ 0.2
14,GKHC,≤ 0.2
15,QDSE,≤ 0.2
16,QGDY,≤ 0.2
17,RHDW,≤ 0.2
18,GDTC,≤ 0.2
19,QCHF,≤ 0.2
20,SLPY,≤ 0.2
21,YHPR,≤ 0.2
22,EAAE,≤ 0.2
23,ITFA,≤ 0.2
24,NQDR,≤ 0.2

row,Variant,one-hybrid fitness for binding NBS DNA
1,HHEY,≤ 0.2
2,PNDC,≤ 0.2
3,KTRR,0.541
4,ERRT,≤ 0.2
5,VCLS,≤ 0.2
6,MPQQ,≤ 0.2
7,FRRR,0.224
8,NRSQ,≤ 0.2
9,GAEC,≤ 0.2
10,HVPS,≤ 0.2
11,HCQT,≤ 0.2
12,INRR,≤ 0.2
13,RETE,≤ 0.2
14,QVKP,≤ 0.2
15,RKGT,0.649
16,KMDE,≤ 0.2
17,WYKR,0.232
18,CTYY,≤ 0.2
19,NNIT,≤ 0.2
20,HQRI,≤ 0.2
21,AQAF,≤ 0.2
22,MIHR,≤ 0.2
23,DCIS,≤ 0.2
24,LARQ,≤ 0.2

row,Variant,one-hybrid fitness for binding NBS DNA
1,PAGP,≤ 0.2
2,WDSR,≤ 0.2
3,TCVA,≤ 0.2
4,VYPL,≤ 0.2
5,PQIA,≤ 0.2
6,DSLE,≤ 0.2
7,PSTW,≤ 0.2
8,DYLC,≤ 0.2
9,MAQC,≤ 0.2
10,QRWQ,0.214
11,NELC,≤ 0.2
12,YFMG,≤ 0.2
13,SAMR,≤ 0.2
14,VFTW,≤ 0.2
15,AFHA,≤ 0.2
16,IFSR,≤ 0.2
17,CDWV,≤ 0.2
18,AGPM,≤ 0.2
